{"source": "PubChem BioAssay AID651820", "about": "(National Center for Advancing Translational Sciences (NCATS), 2012)", "note": "Out of some 340,000 compounds screened, about 12,000 (3.5%) were called active. This list was built around the results that the source calls inconclusive (neither active nor inactive); the mix of calls is not that of the screen. The call rests on the fitted dose curve; in most records, active means well fitted inhibition curve with a large enough effect; inconclusive means small, poorly fitted or top-dose-only effect, or another doubt; inactive means no such curve, though single readings can be large or run the other way. Potencies of inconclusive entries are left out as doubtful fits. Potency means the concentration at half of the fitted maximal effect; tags describe the fitted curve by direction and shape.", "data": [{"test": "qHTS Assay for Inhibitors of Hepatitis C Virus (HCV)", "conditions": "Huh7.5.1 HCVcc-Cre (HCVcc is cell-culture hepatitis C virus) infection, luciferase reporter, 44 h; series mostly up to 41.8 µM", "outline": "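Antiviral activity was scored by luciferase reporter output from cells infected with HCVcc-Cre (~0.5 moi) in presence of compound, 44 h infection period, cells seeded 1,000/well 4 h prior.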", "values": [{"smiles": "CCN1C(=O)N/C(=C/c2ccc(Sc3ccc(C)cc3)o2)C1=O", "Potency": "inconclusive [inhibitor, single point]"}, {"smiles": "Cc1ccc(Cn2cccc2/C=C2/C(=N)N3C=CSC3=NC2=O)cc1", "Potency": "inconclusive [inhibitor, single point]"}, {"smiles": "Cn1c(SCC(=O)NC(C)(C)C)nc(O)cc1=O", "Potency": "inactive"}, {"smiles": "Cc1ccc(C(=O)CSc2nnc(-c3ccccc3)n2-c2ccccc2)o1", "Potency": "inconclusive [inhibitor, partial curve, poor fit]"}, {"smiles": "CCOC(=O)c1c(C)n(-c2ccc(C)cc2)c2ccc(OCC(O)CN3CCN(C)CC3)cc12", "note": "(stereo not given)", "Potency": "inconclusive [inhibitor, partial curve]"}, {"smiles": "COc1ccc(Cl)cc1NC(=O)CN(C)CC(=O)NCc1ccc(F)cc1", "Potency": "inconclusive [inhibitor, partial curve]"}, {"smiles": "COc1c(C(C)C)cc(NC(C)=O)cc1C(C)C", "Potency": "inconclusive [inhibitor, full curve, poor fit]"}, {"smiles": "CN1CCC(N(C)CC(=O)Nc2ccc3c(c2)OC(F)(F)O3)CC1", "Potency": "inconclusive [inhibitor, single point]"}, {"smiles": "COc1ccc2nc3cc(Cl)ccc3c(Nc3cc(C(C)C)c(O)cc3C)c2c1", "Potency": "active: 11.2 µM"}, {"smiles": "O=C(CN1CCCCC1)Nc1ccc(S(=O)(=O)NC2CCCCC2)cc1", "Potency": "inconclusive [inhibitor, single point]"}, {"smiles": "COc1ccc([N+](=O)[O-])cc1N(CC(O)CN1CCCCC1)S(=O)(=O)c1ccccc1", "note": "(stereo not given)", "Potency": "inactive"}, {"smiles": "CCCn1cc(SCC(=O)Nc2ccc3c(c2)OCO3)c2ccccc21", "Potency": "active: 14.1 µM"}, {"smiles": "CC(C)Cc1nnc(NC(=O)CCC(=O)N2CCN(Cc3ccc(Cl)cc3)CC2)s1", "Potency": "inconclusive [inhibitor, partial curve]"}, {"smiles": "Cc1cc(Br)ccc1-n1[nH]c(C)c(C=Nc2cccc3nsnc23)c1=O", "Potency": "inconclusive [inhibitor, single point]"}, {"smiles": "Cc1ccc(-c2nnc(-c3ccc4c(c3)OCO4)o2)cc1", "Potency": "inactive"}, {"smiles": "COc1ccc(NC(=O)CCN=C2NS(=O)(=O)c3ccccc32)cc1S(=O)(=O)N(C)C", "Potency": "inactive"}, {"smiles": "COc1cccc(C(=O)/C=C/c2ccc(OCC#N)c(OC)c2)c1", "Potency": "inconclusive [inhibitor, single point]"}, {"smiles": "CC(C)OP(C)(=O)CN1CCN(CP(C)(=O)OC(C)C)CC1", "note": "(stereo not given)", "Potency": "inactive"}, {"smiles": "CCOc1ccc(Cc2c(Cl)nc(SC)nc2N(C)C)cc1", "Potency": "inconclusive [inhibitor, single point]"}, {"smiles": "COc1ccc(NC(=O)C2(c3ccc(NC(=O)c4ccc(OC)c(OC)c4)cc3)CCCC2)cc1", "Potency": "inconclusive [inhibitor, partial curve]"}, {"smiles": "CC(C)Nc1ccc(C(CC(N)=O)NC(=O)Cc2ccc(Br)cc2)cc1[N+](=O)[O-]", "note": "(stereo not given)", "Potency": "inactive"}, {"smiles": "CCCN(CC(=O)Nc1ccccc1OC)C(=O)CCC(=O)c1ccc(OCC)cc1", "Potency": "inconclusive [inhibitor, partial curve]"}, {"smiles": "CC(OC(=O)CCN1C(=O)C2CC=CCC2C1=O)C(=O)Nc1cccc(C#N)c1", "note": "(stereo not given)", "Potency": "inactive"}, {"smiles": "COC(=O)c1sc(NC(=O)c2csc3c2CCCC3)nc1C", "Potency": "active: 11.2 µM"}, {"smiles": "Cc1cc(C)c2nc(C(F)(F)F)nc(N3CCN(C(=O)c4ccco4)CC3)c2c1", "Potency": "active: 12.6 µM"}, {"smiles": "COc1ccc(C(=O)NC2CCCc3ccccc32)cc1S(=O)(=O)N1CCOCC1", "note": "(stereo not given)", "Potency": "inconclusive [inhibitor, single point]"}, {"smiles": "CC1C=CCC2C(=O)N(c3ccc(OC(=O)c4cccs4)cc3)C(=O)C12", "note": "(stereo not given)", "Potency": "inconclusive [inhibitor, single point]"}, {"smiles": "CC1CN(Cc2c(O)ccc3c2oc(=O)c2ccccc23)CC(C)O1", "note": "(stereo not given)", "Potency": "inconclusive [inhibitor, partial curve]"}, {"smiles": "CCn1c(NCc2cc(OC)ccc2OC)nc2ccccc21", "Potency": "inconclusive [inhibitor, single point]"}, {"smiles": "Cc1cc(C)nc(N2CCC(C(=O)NC3CCCCCC3)CC2)n1", "Potency": "inactive"}, {"smiles": "CCOc1cc(/C=C/C(=O)OCC(=O)NCC2CCCO2)cc(Cl)c1OC", "note": "(stereo not given)", "Potency": "inconclusive [inhibitor, partial curve]"}, {"smiles": "CC1=C(C(=O)Nc2ccccc2)C(c2ccco2)C(C#N)=C(SCC(=O)OC(C)C)N1", "note": "(stereo not given)", "Potency": "inactive"}, {"smiles": "COc1ccc(C(=O)Nc2ccc3nc(N4CCCCC4)cc(C)c3c2)cc1OC", "Potency": "inconclusive [inhibitor, full curve]"}, {"smiles": "Cc1occc1C(=O)N/N=C/C1=C(N2CCOCC2)C(=C\\c2ccc(Cl)cc2Cl)/CC1", "Potency": "inconclusive [inhibitor, full curve, poor fit]"}, {"smiles": "CCS(=O)(=O)Nc1cccc(-c2nc3cccnc3s2)c1C", "Potency": "inconclusive [inhibitor, single point]"}, {"smiles": "Cc1cc(C)cc(NC(=O)CCc2nc3sc4c(c3c(=O)[nH]2)CCCC4)c1", "Potency": "inconclusive [inhibitor, full curve]"}, {"smiles": "C/C(=N\\NC(=O)c1nnn(-c2nonc2N)c1CN(C)c1ccccc1)c1ccccc1O", "Potency": "inconclusive [inhibitor, single point]"}, {"smiles": "O=C1N/C(=N/O)S/C1=C/c1cccc([N+](=O)[O-])c1", "Potency": "inactive"}, {"smiles": "N#Cc1c(NC(=O)CSc2nc3ccccc3s2)sc2c1CCCC2", "Potency": "inconclusive [inhibitor, partial curve]"}, {"smiles": "COc1ccccc1NS(=O)(=O)c1cc(NC(=O)Nc2ccc(Cl)cc2Cl)ccc1N1CCCCC1", "Potency": "inconclusive [inhibitor, single point]"}, {"smiles": "O=[N+]([O-])c1ccc(S(=O)(=O)CC(CN2CCOCC2)N2CCOCC2)cc1", "note": "(stereo not given)", "Potency": "active: 11.2 µM"}, {"smiles": "Cc1ccccc1Cn1nnc(-c2ccc3c(c2)OCO3)n1", "Potency": "inconclusive [inhibitor, partial curve]"}, {"smiles": "CCOCCCNC(=O)c1ccc2c(c1)ncn2C1CCCC1", "Potency": "inactive"}, {"smiles": "Cn1c(SCc2nc(-c3ccc(Cl)cc3)no2)nnc1-c1ccccc1", "Potency": "inactive"}, {"smiles": "O=C(CN1CCCCCC1)Nc1ccccc1C(=O)Nc1ccccc1", "Potency": "inconclusive [inhibitor, full curve]"}, {"smiles": "COc1cccc(-c2nc(CS(=O)(=O)CC(=O)N3CCc4ccccc43)c(C)o2)c1", "Potency": "inconclusive [inhibitor, single point]"}, {"smiles": "CS(=O)(=O)Nc1ccc(C(=O)Nc2ccc(S(=O)(=O)N3CCCCC3)cc2)cc1", "Potency": "inactive"}, {"smiles": "Nc1nc(CSc2nc3ccccc3[nH]2)nc(N2CCOCC2)n1", "Potency": "inactive"}, {"smiles": "Cc1ccc(OCC(=O)NC(C)c2ccc(Cl)c(Cl)c2)c([N+](=O)[O-])n1", "note": "(stereo not given)", "Potency": "inconclusive [inhibitor, single point]"}, {"smiles": "N#CC1=C(N)OC2=C(CC/C2=C\\c2ccccc2Cl)C1c1ccccc1Cl", "note": "(stereo not given)", "Potency": "inconclusive [inhibitor, single point]"}, {"smiles": "Cc1[nH]c2ccccc2c1/C=N/NC(=S)NCc1ccccc1", "Potency": "inconclusive [inhibitor, single point]"}, {"smiles": "ClC1=C(Cl)C(Cl)=C(Cl)C1=C/C=C/c1ccccc1", "Potency": "active: 8.91 µM"}, {"smiles": "O=C(c1cc(=O)[nH]c2ccccc12)N1CCN(S(=O)(=O)c2ccc3ccccc3c2)CC1", "Potency": "inconclusive [inhibitor, single point]"}, {"smiles": "COc1ccccc1NS(=O)(=O)c1cccc(NC(=O)CCNC(=O)c2ccccc2OC)c1", "Potency": "inconclusive [inhibitor, single point]"}, {"smiles": "COc1ccc(C(=O)O/N=C(\\N)c2ccccc2)c(OC)c1", "Potency": "inconclusive [inhibitor, single point]"}, {"smiles": "CCCSc1nsc(SCCC)c1C#N", "Potency": "inactive"}, {"smiles": "COC(=O)c1c(NC(C)=O)sc(C)c1C", "Potency": "inconclusive [inhibitor, single point]"}, {"smiles": "CCCCc1cc(=O)oc2cc(C)cc(OC(C)C(=O)NCc3ccccn3)c12", "note": "(stereo not given)", "Potency": "inconclusive [inhibitor, partial curve]"}, {"smiles": "O=C(N/C(=C\\c1ccc(-c2ccccc2)o1)C(=O)N1CCOCC1)c1ccccc1", "Potency": "inconclusive [inhibitor, partial curve]"}, {"smiles": "CC1Sc2ccc(S(=O)(=O)CCC(=O)N3CCN(c4ccccc4)CC3)cc2NC1=O", "note": "(stereo not given)", "Potency": "inconclusive [inhibitor, single point]"}, {"smiles": "O=C(CN(c1ccccc1)S(=O)(=O)c1ccccc1)N/N=C/c1ccco1", "Potency": "inactive"}, {"smiles": "COc1cc(C(=O)OCC(=O)N2CCC(Cc3ccccc3)CC2)cc(OC)c1OC", "Potency": "inconclusive [inhibitor, single point]"}, {"smiles": "CC1CCN(CC(CS(=O)(=O)c2ccc([N+](=O)[O-])cc2)N2CCC(C)CC2)CC1", "note": "(stereo not given)", "Potency": "active: 5.01 µM"}, {"smiles": "COc1ccc(C(=O)Nc2c(C)ccc3nsnc23)cc1[N+](=O)[O-]", "Potency": "inconclusive [inhibitor, single point]"}, {"smiles": "O=c1cc(-c2ccc(O)cc2)oc2ccccc12", "Potency": "inconclusive [inhibitor, single point]"}, {"smiles": "Cc1ccc(OCCNC(=O)c2ccccc2OCc2c(C)noc2C)cc1", "Potency": "inconclusive [inhibitor, partial curve]"}, {"smiles": "CN(CC(=O)Nc1ccc(Cl)c(S(=O)(=O)N(C)C)c1)Cc1ccccc1", "Potency": "inconclusive [inhibitor, partial curve]"}, {"smiles": "NC(=O)C1CCN(Cc2nc3cc(Cl)ccc3c(=O)[nH]2)CC1", "Potency": "inactive"}, {"smiles": "O=C(N/N=C/c1cccs1)c1ccc(-n2cccc2)cc1", "Potency": "inactive"}, {"smiles": "C=CCOc1cccc(/C=C/c2nc3ccccc3c(=O)[nH]2)c1", "Potency": "inactive"}]}]}
